# The list shows a part of the results.
# Legend:
# Test in all cases: glycan array binding signal (z-score within array); higher = stronger binding
# Details in all cases: glycan notation: IUPAC condensed, linker removed
# Fuc(a1-2)Gal = molecular target: Fuc(a1-2)Gal
# Outline: (§1)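 The binding signal is a Z-score computed within each array and averaged over linkers. Arrays of the same protein sequence at different concentrations or buffers were also averaged together. Data originate from 3228 arrays in the Consortium for Functional Glycomics database, kept only where the protein sequence was available.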
# Fuc(a1-2)Gal(b1-3)GalNAc = molecular target: Fuc(a1-2)Gal(b1-3)GalNAc
# Outline: as §1
# [1] = molecular target: Fuc(a1-2)Gal(b1-3)GalNAc(a1-3)[Fuc(a1-2)]Gal(b1-4)Glc
# Outline: as §1
# [2] = molecular target: Fuc(a1-2)Gal(b1-3)GalNAc(a1-3)[Fuc(a1-2)]Gal(b1-4)GlcNAc
# Outline: as §1
# [3] = molecular target: Fuc(a1-2)Gal(b1-3)GalNAc(b1-3)Gal
# Outline: as §1
# [4] = molecular target: Fuc(a1-2)Gal(b1-3)GalNAc(b1-3)Gal(a1-4)Gal(b1-4)Glc
# Outline: as §1
# [5] = molecular target: Fuc(a1-2)Gal(b1-3)GalNAc(b1-4)[Neu5Ac(a2-3)]Gal(b1-4)Glc
# Outline: as §1
# Fuc(a1-2)Gal(b1-3)GlcNAc = molecular target: Fuc(a1-2)Gal(b1-3)GlcNAc
# Outline: as §1
# [6] = molecular target: Fuc(a1-2)Gal(b1-3)GlcNAc(b1-2)Man(a1-3)[Fuc(a1-2)Gal(b1-3)GlcNAc(b1-2)Man(a1-6)]Man(b1-4)GlcNAc(b1-4)GlcNAc
# Outline: as §1
# [7] = molecular target: Fuc(a1-2)Gal(b1-3)GlcNAc(b1-2)Man(a1-3)[Fuc(a1-2)Gal(b1-3)GlcNAc(b1-2)Man(a1-6)]Man(b1-4)GlcNAc(b1-4)[Fuc(a1-6)]GlcNAc
# Outline: as §1
# [8] = molecular target: Fuc(a1-2)Gal(b1-3)GlcNAc(b1-3)Gal(b1-4)Glc
# Outline: as §1
# [9] = molecular target: Fuc(a1-2)Gal(b1-3)GlcNAc(b1-3)GalNAc
# Outline: as §1
# [10] = molecular target: Fuc(a1-2)Gal(b1-3)GlcNAc(b1-3)[Fuc(a1-3)[Gal(b1-4)]GlcNAc(b1-6)]Gal(b1-4)Glc
# Outline: as §1
# [11] = molecular target: Fuc(a1-2)Gal(b1-3)GlcNAc(b1-3)[Gal(b1-4)GlcNAc(b1-6)]Gal(b1-4)Glc
# Outline: as §1
# [12] = molecular target: Fuc(a1-2)Gal(b1-3)GlcNAc(b1-3)[Neu5Ac(a2-6)Gal(b1-4)GlcNAc(b1-6)]Gal(b1-4)Glc
# Outline: as §1
# [13] = molecular target: Fuc(a1-2)Gal(b1-3)[Fuc(a1-4)]GlcNAc
# Outline: as §1
# [14] = molecular target: Fuc(a1-2)Gal(b1-3)[Fuc(a1-4)]GlcNAc(b1-2)Man(a1-3)[Fuc(a1-2)Gal(b1-3)[Fuc(a1-4)]GlcNAc(b1-2)Man(a1-6)]Man(b1-4)GlcNAc(b1-4)GlcNAc
# Outline: as §1
# [15] = molecular target: Fuc(a1-2)Gal(b1-3)[Fuc(a1-4)]GlcNAc(b1-3)[Fuc(a1-3)[Gal(b1-4)]GlcNAc(b1-6)]Gal(b1-4)Glc
# Outline: as §1
# [16] = molecular target: Fuc(a1-2)Gal(b1-3)[Fuc(a1-4)]GlcNAc(b1-3)[Gal(b1-4)GlcNAc(b1-6)]Gal(b1-4)Glc
# Outline: as §1
# Fuc(a1-2)Gal(b1-4)Glc = molecular target: Fuc(a1-2)Gal(b1-4)Glc
# Outline: as §1
# Fuc(a1-2)Gal(b1-4)Glc6S = molecular target: Fuc(a1-2)Gal(b1-4)Glc6S
# Outline: as §1
# Fuc(a1-2)Gal(b1-4)GlcNAc = molecular target: Fuc(a1-2)Gal(b1-4)GlcNAc
# Outline: as §1
# [17] = molecular target: Fuc(a1-2)Gal(b1-4)GlcNAc(b1-2)Man(a1-3)[Fuc(a1-2)Gal(b1-4)GlcNAc(b1-2)Man(a1-6)]Man(b1-4)GlcNAc(b1-4)GlcNAc
# Outline: as §1
# [18] = molecular target: Fuc(a1-2)Gal(b1-4)GlcNAc(b1-2)Man(a1-3)[Fuc(a1-2)Gal(b1-4)GlcNAc(b1-2)Man(a1-6)]Man(b1-4)GlcNAc(b1-4)[Fuc(a1-6)]GlcNAc
# Outline: as §1
# [19] = molecular target: Fuc(a1-2)Gal(b1-4)GlcNAc(b1-2)[Fuc(a1-2)Gal(b1-4)GlcNAc(b1-4)]Man(a1-3)[Fuc(a1-2)Gal(b1-4)GlcNAc(b1-2)Man(a1-6)]Man(b1-4)GlcNAc(b1-4)GlcNAc
# Outline: as §1
# [20] = molecular target: Fuc(a1-2)Gal(b1-4)GlcNAc(b1-3)Gal(b1-4)GlcNAc
# Outline: as §1
# [21] = molecular target: Fuc(a1-2)Gal(b1-4)GlcNAc(b1-3)Gal(b1-4)GlcNAc(b1-3)Gal(b1-4)GlcNAc
# Outline: as §1
# [22] = molecular target: Fuc(a1-2)Gal(b1-4)GlcNAc(b1-3)GalNAc
# Outline: as §1
# [23] = molecular target: Fuc(a1-2)Gal(b1-4)GlcNAc(b1-3)[Fuc(a1-2)Gal(b1-4)GlcNAc(b1-6)]GalNAc
# Outline: as §1
# [24] = molecular target: Fuc(a1-2)Gal(b1-4)GlcNAc6S
# Outline: as §1
# [25] = molecular target: Fuc(a1-2)Gal(b1-4)[Fuc(a1-3)]GlcNAc
# Outline: as §1
# [26] = molecular target: Fuc(a1-2)Gal(b1-4)[Fuc(a1-3)]GlcNAc(b1-2)Man(a1-3)[Fuc(a1-2)Gal(b1-4)[Fuc(a1-3)]GlcNAc(b1-2)Man(a1-6)]Man(b1-4)GlcNAc(b1-4)GlcNAc
# Outline: as §1
# [27] = molecular target: Fuc(a1-2)Gal(b1-4)[Fuc(a1-3)]GlcNAc(b1-2)[Fuc(a1-2)Gal(b1-4)[Fuc(a1-3)]GlcNAc(b1-4)]Man(a1-3)[Fuc(a1-2)Gal(b1-4)[Fuc(a1-3)]GlcNAc(b1-2)Man(a1-6)]Man(b1-4)GlcNAc(b1-4)GlcNAc
# Outline: as §1
# [28] = molecular target: Fuc(a1-2)Gal(b1-4)[Fuc(a1-3)]GlcNAc(b1-3)Gal(b1-4)[Fuc(a1-3)]GlcNAc
# Outline: as §1
# [29] = molecular target: Fuc(a1-2)Gal(b1-4)[Fuc(a1-3)]GlcNAc(b1-3)Gal(b1-4)[Fuc(a1-3)]GlcNAc(b1-3)Gal(b1-4)[Fuc(a1-3)]GlcNAc
# Outline: as §1
# [30] = molecular target: Fuc(a1-2)Gal(b1-4)[Fuc(a1-3)]GlcNAc(b1-3)GalNAc
# Outline: as §1
# Fuc(a1-2)Gal6S(b1-4)Glc = molecular target: Fuc(a1-2)Gal6S(b1-4)Glc
# Outline: as §1
# [31] = molecular target: Fuc(a1-2)Gal6S(b1-4)Glc6S
# Outline: as §1
# [32] = molecular target: Fuc(a1-2)Gal6S(b1-4)GlcNAc
# Outline: as §1
# Fuc(a1-2)[Gal(a1-3)]Gal = molecular target: Fuc(a1-2)[Gal(a1-3)]Gal
# Outline: as §1
# [33] = molecular target: Fuc(a1-2)[Gal(a1-3)]Gal(b1-3)GalNAc
# Outline: as §1
# [34] = molecular target: Fuc(a1-2)[Gal(a1-3)]Gal(b1-3)GlcNAc
# Outline: as §1
# [35] = molecular target: Fuc(a1-2)[Gal(a1-3)]Gal(b1-3)GlcNAc(b1-2)Man(a1-3)[Fuc(a1-2)[Gal(a1-3)]Gal(b1-3)GlcNAc(b1-2)Man(a1-6)]Man(b1-4)GlcNAc(b1-4)GlcNAc
# Outline: as §1
# [36] = molecular target: Fuc(a1-2)[Gal(a1-3)]Gal(b1-3)GlcNAc(b1-2)Man(a1-3)[Fuc(a1-2)[Gal(a1-3)]Gal(b1-3)GlcNAc(b1-2)Man(a1-6)]Man(b1-4)GlcNAc(b1-4)[Fuc(a1-6)]GlcNAc
# Outline: as §1
# [37] = molecular target: Fuc(a1-2)[Gal(a1-3)]Gal(b1-3)GlcNAc(b1-3)GalNAc
# Outline: as §1
binder,measurement,setting,value
"CVN (Nostoc ellipsosporum), P81180 (protein) LGKFSQTCYNSAIQGSVLTSTCERTNGGYNTSSIDLNSVIENVDGSLKWQPSNFIETCRNTQLAGSSELAAECKTRAQQFVSTKINLDDHIANIDGTLKYE",glycan array binding signal (z-score),Fuc(a1-2)Gal,-0.305
same,glycan array binding signal (z-score),Fuc(a1-2)Gal(b1-3)GalNAc,-0.301
same,glycan array binding signal (z-score),[1],-0.181
same,glycan array binding signal (z-score),[2],-0.307
same,glycan array binding signal (z-score),[3],-0.293
same,glycan array binding signal (z-score),[4],-0.304
same,glycan array binding signal (z-score),[5],-0.232
same,glycan array binding signal (z-score),Fuc(a1-2)Gal(b1-3)GlcNAc,-0.302
same,glycan array binding signal (z-score),[6],1.62
same,glycan array binding signal (z-score),[7],1.94
same,glycan array binding signal (z-score),[8],0.846
same,glycan array binding signal (z-score),[9],-0.163
same,glycan array binding signal (z-score),[10],-0.199
same,glycan array binding signal (z-score),[11],-0.299
same,glycan array binding signal (z-score),[12],0.148
same,glycan array binding signal (z-score),[13],-0.305
same,glycan array binding signal (z-score),[14],0.585
same,glycan array binding signal (z-score),[15],-0.24
same,glycan array binding signal (z-score),[16],1.4
same,glycan array binding signal (z-score),Fuc(a1-2)Gal(b1-4)Glc,-0.305
same,glycan array binding signal (z-score),Fuc(a1-2)Gal(b1-4)Glc6S,-0.303
same,glycan array binding signal (z-score),Fuc(a1-2)Gal(b1-4)GlcNAc,-0.305
same,glycan array binding signal (z-score),[17],0.822
same,glycan array binding signal (z-score),[18],2.29
same,glycan array binding signal (z-score),[19],1.05
same,glycan array binding signal (z-score),[20],-0.305
same,glycan array binding signal (z-score),[21],-0.208
same,glycan array binding signal (z-score),[22],-0.037
same,glycan array binding signal (z-score),[23],0.54
same,glycan array binding signal (z-score),[24],-0.305
same,glycan array binding signal (z-score),[25],-0.297
same,glycan array binding signal (z-score),[26],0.311
same,glycan array binding signal (z-score),[27],0.557
same,glycan array binding signal (z-score),[28],-0.227
same,glycan array binding signal (z-score),[29],0.402
same,glycan array binding signal (z-score),[30],1.02
same,glycan array binding signal (z-score),Fuc(a1-2)Gal6S(b1-4)Glc,-0.295
same,glycan array binding signal (z-score),[31],-0.064
same,glycan array binding signal (z-score),[32],-0.3
same,glycan array binding signal (z-score),Fuc(a1-2)[Gal(a1-3)]Gal,-0.3
same,glycan array binding signal (z-score),[33],-0.304
same,glycan array binding signal (z-score),[34],-0.304
same,glycan array binding signal (z-score),[35],0.868
same,glycan array binding signal (z-score),[36],2.17
same,glycan array binding signal (z-score),[37],-0.163

# Source: the supplement of paper PMC8728848
